From PMC7819943, “Rice protein-binding microarrays: a tool to detect cis-acting elements near promoter regions in rice”
The other results are listed elsewhere or left out.

Target: T1, OsWOX13 (Oryza sativa, UniProt Q5QMM3 1-267)
T1 sequence: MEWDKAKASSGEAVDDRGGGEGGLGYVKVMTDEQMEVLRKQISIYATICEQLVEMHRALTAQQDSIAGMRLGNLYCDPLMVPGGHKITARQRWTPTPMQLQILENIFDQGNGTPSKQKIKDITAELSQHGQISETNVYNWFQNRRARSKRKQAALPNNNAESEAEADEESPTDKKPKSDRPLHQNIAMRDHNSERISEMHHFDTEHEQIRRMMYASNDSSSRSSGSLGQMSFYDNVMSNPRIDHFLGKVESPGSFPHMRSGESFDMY
Experiment: protein-binding microarray (RPBM); PBS, 2% BSA, 51.3 ng/ul salmon testes DNA, 50 uM zinc acetate, 200 nM TF, 25 C, 1 h; high values mean tight binding
Settings: protein: recombinant; tags: N-terminal polyhistidine and DsRed monomer fusion (pET32a); label: CyDye5-dUTP incorporated in the synthesized complementary strand; 3' TTTTT single-stranded linker to array surface; dsDNA, one strand shown
How it was run: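 Transcription factors were each fused at the N-terminus to a polyhistidine tag plus DsRed and expressed in E. coli BL21-CodonPlus before Ni–NTA purification. Binding to a double-stranded custom Agilent array was carried out with 200 nM protein at 25 °C for 1 h in PBS, 2% BSA, salmon testes DNA and 50 µM zinc acetate. The binding signal is per-feature fluorescence intensity, in arbitrary units, on an Axon 4000B scanner.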

Row | Sequence | binding signal
1 | ACTTCTACATAATTACTGTCTTTGTTGAGGGGTAAACTACCGGAGTCACCTAGTGCAG | 8280 fluorescence intensity (a.u.)
2 | TACATATGTAATTTGCAATTCACATGGTAAATACACTAAACGGAGTCACCTAGTGCAG | 5500 fluorescence intensity (a.u.)
3 | CCGCTCTTGATTAGGTCGATGGGGTAATTTCTCTGTGTTTCGGAGTCACCTAGTGCAG | 18200 fluorescence intensity (a.u.)
4 | TTATGACTGAGGTTAATTAAATAAAAGAGAAGCAAGTAGCCGGAGTCACCTAGTGCAG | 24200 fluorescence intensity (a.u.)
5 | AGGGAATTGACCAGCGTTTAAATGTGGCTGTTCTTGCCTTCGGAGTCACCTAGTGCAG | 10600 fluorescence intensity (a.u.)
6 | ATATATATATATATATATATATATATATCATCGAAAATGTCGGAGTCACCTAGTGCAG | 5140 fluorescence intensity (a.u.)
7 | ACTATAAGATTGAGAGTTTCATATGCAAGTCAACGATGTTCGGAGTCACCTAGTGCAG | 7630 fluorescence intensity (a.u.)
8 | TTTAACGTGGATCTAAACAGACGATCAAACAACATCGACGCGGAGTCACCTAGTGCAG | 6200 fluorescence intensity (a.u.)
9 | ACGCTAATTATCCTCCACCACGAGTCCCCACCCGCCCAGACGGAGTCACCTAGTGCAG | 24600 fluorescence intensity (a.u.)
10 | TACTAATTTTGAATTTAGAGCTATTAACCAATAAATTGTTCGGAGTCACCTAGTGCAG | 12200 fluorescence intensity (a.u.)
11 | TCCCCTTGATTGATTGATCACCATTATTATAACATCCTCTCGGAGTCACCTAGTGCAG | 64400 fluorescence intensity (a.u.)
12 | GCCCACAAATTAAACCGAGAGAAATTAAGAACTTAAGTGTCGGAGTCACCTAGTGCAG | 3380 fluorescence intensity (a.u.)
13 | CTATAAAATTAATTATTAGATCAAACTTAATATTTTCCAACGGAGTCACCTAGTGCAG | 23400 fluorescence intensity (a.u.)
14 | CCTCTCCTTAATTTAGACATAAACTTAATTAGCTATGCCGCGGAGTCACCTAGTGCAG | 35600 fluorescence intensity (a.u.)
15 | AAACATTAATTAATACCATAATAGTTAGGTGACAATTGACCGGAGTCACCTAGTGCAG | 27100 fluorescence intensity (a.u.)
16 | ATAAATTGGACGGCTGAGATACTATCTGCTATAGGAAGCGCGGAGTCACCTAGTGCAG | 31900 fluorescence intensity (a.u.)
17 | GGCAAGTGATTATAGAAAAGGGGATCGCTGATCAAGGATACGGAGTCACCTAGTGCAG | 5180 fluorescence intensity (a.u.)
18 | GAAATTTGACAAGCAAGAACCAATCAACTAAATCAATCCACGGAGTCACCTAGTGCAG | 14200 fluorescence intensity (a.u.)
19 | CTTGATTTTGAAGTTGATTTTGAAATGCTTTTAACGTAATCGGAGTCACCTAGTGCAG | 33400 fluorescence intensity (a.u.)
20 | ATGTCATTTTAAAGTTTAATTAATTAGATAATTACCTTCTCGGAGTCACCTAGTGCAG | 17500 fluorescence intensity (a.u.)
21 | TGTTTAAATGGATGATAAGTAGAATTACTTATCCTTGTTCCGGAGTCACCTAGTGCAG | 6280 fluorescence intensity (a.u.)

Row | Sequence | binding signal
22 | CAACCGAAATGACAGAGGATTGACTACACGCCTATACTATCGGAGTCACCTAGTGCAG | 5590 fluorescence intensity (a.u.)
23 | ATCAATCTCAATGGTTAAATGATTGATCTATCATAATTCACGGAGTCACCTAGTGCAG | 22100 fluorescence intensity (a.u.)
24 | TAGTTTAACATAATTAATAATTAATTATACCTTGAGTTAACGGAGTCACCTAGTGCAG | 20100 fluorescence intensity (a.u.)
25 | TCAGATCTATTCAATCAGATGATGTTCTTGCCTGATATTCCGGAGTCACCTAGTGCAG | 9610 fluorescence intensity (a.u.)
26 | TGGTTAATTGAGATTTAATGATTTCAAACTTGAGAAAATACGGAGTCACCTAGTGCAG | 29600 fluorescence intensity (a.u.)
27 | TATTTGCATTCAAATTTTGATTTATGAAATTTGTTCAGAACGGAGTCACCTAGTGCAG | 3470 fluorescence intensity (a.u.)
28 | ATATATATATATATATATATATGGAATACATCATATCCAACGGAGTCACCTAGTGCAG | 15600 fluorescence intensity (a.u.)
29 | GTTTGATATTAAATGATGGTCGTCTTTTGCAACCGTCGAGCGGAGTCACCTAGTGCAG | 3470 fluorescence intensity (a.u.)
30 | TATAATTGATGGAACAAGTAGTATTTAGGAGTGACGAGTACGGAGTCACCTAGTGCAG | 37200 fluorescence intensity (a.u.)
31 | CCATTTCATTTGCACATCCAATCAGAATCAGGCGTAGGCACGGAGTCACCTAGTGCAG | 4280 fluorescence intensity (a.u.)
32 | AGTTAATTCAAAATAGAGTAGCCTAATGCGCTACTCTGGGCGGAGTCACCTAGTGCAG | 7920 fluorescence intensity (a.u.)
33 | CCCCGCTTGATAGATTCGAGCACGCACGCCGGGTTGGCGCCGGAGTCACCTAGTGCAG | 9730 fluorescence intensity (a.u.)
34 | ACGCAATTGATGCCATTTGCTTACAACACCATTGGCATTTCGGAGTCACCTAGTGCAG | 5740 fluorescence intensity (a.u.)
35 | CATAAATTAATTTGTTCACGTCACATTATATACAGTTGTACGGAGTCACCTAGTGCAG | 55000 fluorescence intensity (a.u.)
36 | AAATTCAATCTAGCTTTCTAATAGCCCGTCTTTGTTTAATCGGAGTCACCTAGTGCAG | 3720 fluorescence intensity (a.u.)
37 | ACGGAGGAGGAACAATCAAAATTGATAACAGGAAAATAGTCGGAGTCACCTAGTGCAG | 4100 fluorescence intensity (a.u.)
38 | CGTAATTAGGCTTAAAAGATTTCTCTCACGATTTACACGTCGGAGTCACCTAGTGCAG | 35300 fluorescence intensity (a.u.)
39 | TCAAAATCAGTCACAATAAATTCGGTTTTGATCCCGGTTTCGGAGTCACCTAGTGCAG | 5110 fluorescence intensity (a.u.)
40 | TTATTTGTTTTGTTTGTGATTTGCTTTATTATCAAAAGTACGGAGTCACCTAGTGCAG | 4600 fluorescence intensity (a.u.)
41 | TATGCAGTTTTACAATAATTTAATTAAAGTACAGTTTTGTCGGAGTCACCTAGTGCAG | 5420 fluorescence intensity (a.u.)
42 | ACGGATGATTAAAGTTTAATAGAGAAACTTATGATTGTGCCGGAGTCACCTAGTGCAG | 34900 fluorescence intensity (a.u.)
